The values that follow come from patent US5158939A, “Method of stimulating the immune systems of animals and compositions useful therefor” (priority 1990, dated 1992).

Assay type in all cases: cell-based
One experiment concerns macrophage. From the text:
In an effort to determine which structural features contributed to the non-toxic nature of the preferred compounds comparative tests were run with reduced RsDPLA and reduced E. coli DPLA in the extremely sensitive assay of pruning of macrophage by LPS/lipid A for PMA-stimulated superoxide anion release. […] The important features must be (a) the presence of five fatty acids in the RsDPLA vs. six fatty acids in E. coli DPLA and (b) the presence of a OH at C10 at the 3-position of RsDPLA vs. the OH at C14 in the E. coli DPLA.

For the next experiment, the system named is 70Z/3 cells. As to the kind of experiment: Activation of 70Z/3 cells. The method, then:
^1 Corrected for background of 5% fluorescence.
^2 The DPLA stimulated 7OZ/3 preB cells to the extent of from 2.5-6.0
fluorescence at concentrations of 1.0-10 mg/ml. In the competitive
inhibition experiment, the cells were first exposed to DPLA for 2 hours
before adding the ReLPS. In all experiments, the ReLPS and DPLA were
complexed with bovine serum albumin.
In this experiment, 0.1 μg/ml of ReLPS and 3.0 μg/ml of DPLA were
^1 The time of pre/post treatment of 7OZ/3 cells with DPLA relative t
the time of addition of ReLPS are indicated.

The subject of experiment [1] is RAW 264.7 murine macrophage cells. As to the kind of experiment: Cachectin/TNF production by RAW 264.7 cells, immunoblot. The method, then:
For the […] to activate the RAW 264.7 murine macrophage cell line, we chose the toxic deep rough chemotype LPS (ReLPS) from Escherichia coli D31m4, which was recently purified and characterized^15. […] This is a clear example of a lipid A derivative showing strong antagonism against a toxic agonist in the induction of cachectin.
The immunoblot method was used to quantitate the cachectin/TNF production by RAW 264.7 murine macrophage cells. RAW 264.7 cells^4,16 were seeded in 24-well plates (Nunc) at a density of 3×10^5 cells/well in Dulbecco's modified Eagle's medium supplemented with 5 percent fetal calf serum. After 12 hours, cell monolayers were washed twice with 1 ml of serum-free medium and then left covered with […] of the same. An aqueous suspension of DPLA and/or ReLPS was then added to a final concentration indicated. Cells were incubated for 12 hours, after which the medium was removed for measurement of TNF by immunoblotting. One hundred μl of medium was mixed with 100 μl of SDS-containing sample buffer, heated to 100° C. for 5 minutes, and subjected to electrophoresis in a 10-15% polyacrylamide gradient gel. […]
Bands were visualized using nitroblue tetrazolium. Approximately 0.1 ng of cachectin/TNF may be detected as a band. […]
A general note: In western blotting, separated proteins are transferred to a membrane and probed.

Structures are written as SMILES.

As for `CCCCCCC=CCCCCCC(=O)OC(CCCCCCCCCCC)CC(=O)NC1C(OCC2OC(OP(=O)(O)O)C(NC(=O)CC(=O)CCCCCCCCCCC)C(OC(=O)CC(O)CCCCCCC)C2O)OC(CO)C(OP(=O)(O)O)C1OC(=O)CC(O)CCCCCCC` (stereo not shown) [DPLA], in the experiment on macrophage, the “activity in priming of macrophage for PMA-stimulated superoxide anion release” value was “inactive or non-toxic”. For the same molecule, in the experiment with 70Z/3 cells, the “activation of 70Z/3 cells” value was “inactive in the activations of 70Z/3 cells by toxic LPS” and the “stimulation of 70Z/3 preB cells by DPLA” value is listed as 2.5-6.0. For the same molecule, the “induction of cachectin/TNF (immunoblot)” value in experiment [1] is recorded as “lack of induction”.
